This note sets out measurements from publication PMC4336329 (PLoS ONE, 2015).

Out of some 310,000 compounds screened, about 2,200 (0.71%) showed an effect of 50% or more. The effect is printed as a negative number. Some of the results follow. Where a SMILES comes first, the peptide text is derived from it. The star is where a group is joined. Boc = CC(C)(C)OC(=O)*; OtBu = CC(C)(C)O*

Sequence of human ether-à-go-go-related gene (hERG) potassium channel (Q12809 whole entry, looked up): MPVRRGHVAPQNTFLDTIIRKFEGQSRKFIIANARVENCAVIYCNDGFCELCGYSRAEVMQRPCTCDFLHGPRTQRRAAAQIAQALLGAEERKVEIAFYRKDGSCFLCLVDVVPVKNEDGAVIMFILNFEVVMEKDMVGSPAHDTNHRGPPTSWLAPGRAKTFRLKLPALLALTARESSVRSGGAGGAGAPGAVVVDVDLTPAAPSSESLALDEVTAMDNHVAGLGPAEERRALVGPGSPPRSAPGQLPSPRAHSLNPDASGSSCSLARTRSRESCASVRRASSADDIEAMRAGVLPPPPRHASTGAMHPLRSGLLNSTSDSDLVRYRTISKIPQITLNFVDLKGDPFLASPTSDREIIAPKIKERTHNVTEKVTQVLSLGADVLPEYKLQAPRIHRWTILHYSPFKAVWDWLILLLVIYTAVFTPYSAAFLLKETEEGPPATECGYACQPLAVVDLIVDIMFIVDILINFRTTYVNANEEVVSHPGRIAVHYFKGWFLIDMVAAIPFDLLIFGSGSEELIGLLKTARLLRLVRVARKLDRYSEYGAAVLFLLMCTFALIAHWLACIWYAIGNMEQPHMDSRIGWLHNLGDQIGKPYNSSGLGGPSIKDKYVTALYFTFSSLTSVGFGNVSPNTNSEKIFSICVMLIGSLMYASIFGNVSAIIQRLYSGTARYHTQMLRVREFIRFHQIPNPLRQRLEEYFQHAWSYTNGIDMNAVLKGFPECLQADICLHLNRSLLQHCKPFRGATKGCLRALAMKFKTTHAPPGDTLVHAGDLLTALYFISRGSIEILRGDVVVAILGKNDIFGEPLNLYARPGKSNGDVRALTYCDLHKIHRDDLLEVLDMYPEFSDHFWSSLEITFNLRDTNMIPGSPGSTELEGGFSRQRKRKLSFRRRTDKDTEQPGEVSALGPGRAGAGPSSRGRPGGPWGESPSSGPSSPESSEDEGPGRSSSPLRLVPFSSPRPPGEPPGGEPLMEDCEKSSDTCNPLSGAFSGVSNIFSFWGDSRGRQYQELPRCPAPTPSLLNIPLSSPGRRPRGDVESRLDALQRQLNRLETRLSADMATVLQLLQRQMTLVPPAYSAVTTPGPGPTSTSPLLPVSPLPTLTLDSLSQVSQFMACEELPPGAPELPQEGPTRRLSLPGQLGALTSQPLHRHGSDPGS

This test has as its target human ether-à-go-go-related gene (hERG) potassium channel (human, UniProt Q12809). Description: primary screen, population patch clamp on CHO cells stably expressing hERG.
With `CC(=O)NC(c1ccccc1)c1cc([N+](=O)[O-])c2cccnc2c1O` (stereo not shown), the “hERG current change (%, negative = inhibition) at 1uM” value is given as 8.48%.
For the compound `COc1cc2ccccc2cc1C(=O)NCc1ccncc1`, the “hERG current change (%, negative = inhibition) at 1uM” value is on record as 2.89%.
On to `CC(C(=O)O)n1c2ccccc2c2cn[nH]c(=O)c21` (stereo not shown), for which the “hERG current change (%, negative = inhibition) at 1uM” value worked out at 14.5%.
The value for `Cc1ccc(C)c(S(=O)(=O)N2CCCCC2CCNC(=O)C(=O)NCc2cccnc2)c1` (stereo not shown) was 3.69%.
Take `CCCN(CCC)CCCNC(=O)c1cc2c(=O)n(C)c3ccccc3c2n1C`: the “hERG current change (%, negative = inhibition) at 1uM” value was 4.94%.
For `CCc1ccc(C(=O)Nc2cc(C)ccc2F)s1`, the “hERG current change (%, negative = inhibition) at 1uM” value came out at 10.4%.
For the compound `NC(=O)c1sc2nc3c(c(-c4ccco4)c2c1N)CCC3`, the “hERG current change (%, negative = inhibition) at 1uM” value is recorded as -1.6%.
In the case of `CC(=O)N1CCSc2ccc(S(=O)(=O)Nc3cccc(C)c3)cc21`, the “hERG current change (%, negative = inhibition) at 1uM” value came to 5.18%.
The value for `Cc1nonc1CN(C)C(=O)CC1C(=O)NCCN1Cc1c(F)cccc1Cl` (stereo not shown) was 6.14%; that for `C=CCNC(=O)c1cc2c(=O)n3cc(C)ccc3nc2nc1NCC1CCCO1` (stereo not shown) was -82%.
`COc1ccc(S(=O)(=O)NCc2ccccn2)c(Cl)c1Cl`: the “hERG current change (%, negative = inhibition) at 1uM” value was -2.93%.
The value for `CCn1c(COc2ccc3c(c2)OCO3)nnc1SCC(=O)c1ccc(Cl)cc1` was 11.1%; that for `NNC(=O)c1sccc1OCc1ccc(Cl)cc1` was 13.2%.
For the compound `CC(C)NC(=O)CSc1nc2ccccc2n1CC(=O)N1CCc2ccccc21`, the “hERG current change (%, negative = inhibition) at 1uM” value was 8.47%.
The value for `O=C(NCc1ccccc1)C1CCCN(c2ncnc3c2nc2n3CCCCC2)C1` (stereo not shown) was -30.8%; that for `COc1ccccc1N1CCN(C(=O)c2cc(-c3ccc(F)cc3)on2)CC1` was 19.3%.
Turning to `COc1ccc(Nc2nc(C(C)(C)C)nc3c2nnn3Cc2ccccc2Cl)cc1OC`, the “hERG current change (%, negative = inhibition) at 1uM” value was 7.93%.
For the compound `CN1CCN(c2ccccc2NC(=O)c2ccc(-c3ccc(Br)cc3)o2)CC1`, the “hERG current change (%, negative = inhibition) at 1uM” value is given as 2.24%.
Take `O=C(CNS(=O)(=O)c1ccc(Br)cc1Cl)OCC(=O)c1ccc[nH]1`: the “hERG current change (%, negative = inhibition) at 1uM” value was 4.02%.
Take `Clc1ccc(C(c2ccccc2)N2CCNCC2)cc1` (stereo not shown): the “hERG current change (%, negative = inhibition) at 1uM” value is on record as -3.9%.
For `COC(=O)c1[nH]c2cc(OC)c(OC)cc2c1NC(=O)CN1C[C@H]2C[C@@H](C1)c1cccc(=O)n1C2`, the “hERG current change (%, negative = inhibition) at 1uM” value is listed as 7.05%.
As to `Cc1ccc(OCCC(=O)OCC(=O)Nc2ccc3[nH]c(=O)[nH]c3c2)cc1`, the “hERG current change (%, negative = inhibition) at 1uM” value came to 4.44%.
As to `O=C(/C=C/c1ccccc1[N+](=O)[O-])N1CCN(c2ccccc2F)CC1`, the “hERG current change (%, negative = inhibition) at 1uM” value stood at 13.1%.
With `O=C(N/N=C(\Cc1ncc[nH]1)c1ccccc1)c1cccnc1`, the “hERG current change (%, negative = inhibition) at 1uM” value was 13.4%.
The figure for `O=C(Nc1ccc(-c2nc3cc(NC(=O)c4cccs4)ccc3o2)cc1)c1cccs1` is 24.6%; for `NS(=O)(=O)OCC(Cc1ccccc1)N1C(=O)c2ccccc2C1=O` (stereo not shown) it is 6.52%.
For the compound `Cc1cc(C)cc(NC(=O)N(CCC#N)Cc2cccs2)c1`, the “hERG current change (%, negative = inhibition) at 1uM” value came to 11.3%.
In the case of `O=C(O)c1ccc(N/N=C/c2ccc(OC(=O)c3cccc(Cl)c3)cc2)cc1`, the “hERG current change (%, negative = inhibition) at 1uM” value is given as 7.33%.
On to `Cc1cccc(NC(=O)c2cc(Cl)sc2Cl)c1C`, for which the “hERG current change (%, negative = inhibition) at 1uM” value was 7.97%.
Regarding `CC(C)CC(NS(=O)(=O)c1ccc2[nH]c(=O)c(=O)[nH]c2c1)C(=O)O` (stereo not shown), the “hERG current change (%, negative = inhibition) at 1uM” value was 15.7%.
As for `CC(=O)Nc1ccc(S(=O)(=O)NCCc2ccc(S(N)(=O)=O)cc2)cc1`, the “hERG current change (%, negative = inhibition) at 1uM” value amounted to 16.4%.
Take `CCOC(=O)c1ccc(N2C(=O)C(CC(=O)NC)N(CCc3ccc(OC)c(OC)c3)C2=S)cc1` (stereo not shown): the “hERG current change (%, negative = inhibition) at 1uM” value turned out to be 4.66%.
For `O=C(CSc1nnc(-c2ccncc2)n1Cc1ccccc1)NC1CCCCC1`, the “hERG current change (%, negative = inhibition) at 1uM” value is listed as 2.98%.
With `CCOC(=O)c1ccc2c(c1)nc(SC/C(O)=C(\C#N)c1nc3ccccc3[nH]1)n2CC`, the “hERG current change (%, negative = inhibition) at 1uM” value was determined as 13.4%.
The figure for `O=C1CC(=O)N(CCc2ccc(F)cc2)C(=O)N1` is 11.4%.
As for `Cc1ccc(C(=O)N/C(=C/c2cn(-c3ccccc3)nc2-c2ccccc2)C(=O)O)cc1`, the “hERG current change (%, negative = inhibition) at 1uM” value is listed as 16.1%.
In the case of `COc1ccc2c(c1)OC[C@H]1[C@H]2N2C(=O)c3cc(Br)ccc3NC(=O)[C@@]2(C)[C@H]1c1ccccc1`, the “hERG current change (%, negative = inhibition) at 1uM” value is -0.715%.
On to `COc1ccc(CCC(=O)N2C[C@H]3C[C@@H](C2)c2cccc(=O)n2C3)cc1`, for which the “hERG current change (%, negative = inhibition) at 1uM” value amounted to 2.37%.
The figure for `CCC/C(C)=N/NC(=O)c1ccccc1O` is -2.61%; for `CCOCCn1c(CN(Cc2ccccc2)Cc2ccccc2)nc2c1c(=O)[nH]c(=O)n2C` it is -6.06%; for `CC1CCN(c2cc(C#N)c(C#N)cc2[N+](=O)[O-])CC1` it is 6.9%.
The value for `Cc1ccc(OCC(O)CN2CCc3ccccc3C2)c(C)c1.Cl` (stereo not shown) was -42.6%.
With `Cc1cccc(NC(=O)c2c(-c3ccccc3)noc2C)n1`, the “hERG current change (%, negative = inhibition) at 1uM” value stood at 5.95%.
On to `CSc1cccc(NC(N)=S)c1`, for which the “hERG current change (%, negative = inhibition) at 1uM” value is on record as 14.7%.
In the case of `O=[N+]([O-])c1ccc2[nH]cc(S(=O)(=O)N3CCN(c4cccc(Cl)c4)CC3)c2c1`, the “hERG current change (%, negative = inhibition) at 1uM” value came out at 17.3%.
Turning to `O=C(O)CSCC(=O)N1CCN(c2nc3cc(Cl)ccc3s2)CC1`, the “hERG current change (%, negative = inhibition) at 1uM” value came to 4.82%.
As to `COc1ccccc1CC(=O)N1CCN(C(=O)c2ccco2)CC1`, the “hERG current change (%, negative = inhibition) at 1uM” value was 6.92%.
`Cc1cc(C)cc(Oc2ccc(S(=O)(=O)N3CCN(C)CC3)cn2)c1`: the “hERG current change (%, negative = inhibition) at 1uM” value worked out at 15.3%.
For `COc1ccc(C(=O)NC(=O)NC2(C(Cl)(Cl)Cl)OCCO2)cc1`, the “hERG current change (%, negative = inhibition) at 1uM” value came to 8.1%.
As to `CN(C)CCNC(=O)c1onc(CSc2ccncc2)c1C(=O)NCCN(C)C`, the “hERG current change (%, negative = inhibition) at 1uM” value worked out at 7.02%.
Turning to `CC(Sc1nncn1C)C(=O)Nc1ccc(Cl)cn1` (stereo not shown), the “hERG current change (%, negative = inhibition) at 1uM” value worked out at 14%.
Regarding `COC(=O)[C@@]1(Cc2ccc(OC)cc2)[C@H]2c3cc(C(=O)N4CCCC4)n(C[C@H](O)CO)c3C[C@H]2CN1C(=O)c1ccccc1`, the “hERG current change (%, negative = inhibition) at 1uM” value stood at 6.78%.
Take `CC(NC(=O)C(CC(=O)OC(C)(C)C)NC(=O)OC(C)(C)C)C(N)=O` (stereo not shown) (Boc-Asp(OtBu)-Ala-NH2; configuration not given here): the “hERG current change (%, negative = inhibition) at 1uM” value is listed as 7.22%.
On to `CCOc1ccc(NC(=O)[C@H](Cc2ccccc2)NC(=O)C2CCNCC2)cc1`, for which the “hERG current change (%, negative = inhibition) at 1uM” value came to 8.62%.
Consider `O=C(O)c1ccc(N=NN2CCCC2)cc1`, for which the “hERG current change (%, negative = inhibition) at 1uM” value is 16.8%.
The value for `O=C(N/N=C/c1ccc(Cl)cc1)c1n[nH]c2c1CCCC2` was 7.34%.
The figure for `CC(C)COc1cccc(C(=O)Nc2ccc(CN3CCOCC3)cc2)c1` is 7.04%; for `O=C(CCCCCn1c(SCc2ccncc2)nc2ccccc2c1=O)NCc1ccco1` it is -88.4%.
In the case of `C[C@H](NC(=O)[C@@H]1Cc2ccccc2CN1)C(=O)NC1CCCC1`, the “hERG current change (%, negative = inhibition) at 1uM” value was determined as 11.8%.
Consider `O=C(Nc1ccccc1Oc1ccccc1)c1ccc(Br)o1`, for which the “hERG current change (%, negative = inhibition) at 1uM” value is listed as 2.85%.
Regarding `COc1cccc(OC)c1OCCCCN1CCCCC1.O=C(O)C(=O)O`, the “hERG current change (%, negative = inhibition) at 1uM” value was 9.21%.
For the compound `CCC(C)NS(=O)(=O)c1ccc(NC(=O)CCC2CCCCC2)cc1` (stereo not shown), the “hERG current change (%, negative = inhibition) at 1uM” value was 14.9%.
The value for `COc1ccc(NC(=O)C(CC(C)C)NS(=O)(=O)c2ccc3c(c2)CCN3C(C)=O)cc1OC` (stereo not shown) was 10.8%.
With `COc1ccc(-c2noc(CN3CCC(Cc4ccccc4)CC3)n2)cc1`, the “hERG current change (%, negative = inhibition) at 1uM” value was -4.49%.
In the case of `CC(=O)c1cc(-c2ccccc2)n(CC(=O)Nc2cccc(C)c2)c1C`, the “hERG current change (%, negative = inhibition) at 1uM” value came to 2.49%.
In the case of `COc1ccc(S(=O)(=O)N2CCCC2CNC(=O)C(=O)NCCc2ccccc2)cc1` (stereo not shown), the “hERG current change (%, negative = inhibition) at 1uM” value came out at 10.5%.
Take `Clc1cccc(Nc2nc(-c3ccncc3)nc3ccccc23)c1`: the “hERG current change (%, negative = inhibition) at 1uM” value was -3.17%.
The value for `COc1ccc2nc3sc(C(=O)NCc4cccs4)c(N)c3cc2c1` was -1.62%; that for `CCOc1ccccc1OCCCOc1ccc(C)cc1Cl` was 6.88%; that for `COC(=O)c1ccc(S(=O)(=O)N2CCCN(Cc3ccc(F)cc3)CC2)n1C` was 5.98%.
The value for `O=C(NCCO)c1cc2ccccc2c(=O)s1` was 8.76%; that for `Cc1ccc2oc(C(=O)N(Cc3ccc(N(C)C)cc3)CC3CCCO3)c(C)c2c1` (stereo not shown) was 7.49%.
For the compound `Cc1ccc(/C=N/NC(=O)NC2CCCCC2)o1`, the “hERG current change (%, negative = inhibition) at 1uM” value is 4.89%.
On to `Cc1ccc(-c2cc(C(=O)Nc3nn[nH]n3)c3ccccc3n2)cc1`, for which the “hERG current change (%, negative = inhibition) at 1uM” value came to 9.75%.
As to `CCc1ccc(OCC(=O)N/N=C(\C)c2ccc3c(c2)OCCO3)cc1`, the “hERG current change (%, negative = inhibition) at 1uM” value was -3.42%.
Regarding `O=C(NC1CCC1)C1CCC(=O)N(Cc2ccccc2F)C1` (stereo not shown), the “hERG current change (%, negative = inhibition) at 1uM” value is recorded as -0.1%.
On to `Cc1cc(-c2c(C)[nH]n(-c3ccc(Cl)cc3)c2=O)n[nH]1`, for which the “hERG current change (%, negative = inhibition) at 1uM” value came out at 10.3%.
`Oc1ccc2ccccc2c1-c1sc(Nc2ccccc2)n[n+]1-c1ccc(F)cc1.[Cl-]`: the “hERG current change (%, negative = inhibition) at 1uM” value came to 6.48%.
For the compound `C=CCNC(=O)COCc1cc(-c2ccc3c(c2)OCO3)on1`, the “hERG current change (%, negative = inhibition) at 1uM” value is on record as 9.44%.
For the compound `O=C(/C=C/c1ccc2c(c1)OCO2)NCCCN1CCOCC1`, the “hERG current change (%, negative = inhibition) at 1uM” value was 6.43%.
Take `COc1ccc(S(=O)(=O)n2nc(-c3ccc(Cl)cc3)cc2N)cc1OC`: the “hERG current change (%, negative = inhibition) at 1uM” value worked out at 14.3%.
Regarding `C[C@@H]1O[C@@H](O[C@H]2[C@H](O)[C@@H](O)[C@H](Oc3c(-c4ccc(O)c(O)c4)oc4cc(O)cc(O)c4c3=O)O[C@@H]2CO)[C@H](O)[C@H](O)[C@H]1O`, the “hERG current change (%, negative = inhibition) at 1uM” value came to 14.6%.
As for `Cc1ccc(C(=O)NCc2ccc(F)cc2)s1`, the “hERG current change (%, negative = inhibition) at 1uM” value is listed as 7.24%.
As for `C=CCn1c(SCc2cc(C(C)=O)ccc2OCC)nc2ccccc2c1=O`, the “hERG current change (%, negative = inhibition) at 1uM” value turned out to be 4.65%.
The value for `Cc1ccc(N2CCN(c3ccc([N+](=O)[O-])cn3)CC2)c(C)c1` was 5.15%.
